A lower IC50 marks a more sensitive line; a fit beyond the top or the lowest dose is shown as a bound at that dose. For AUC the same curve is integrated over the 256-fold range of doses and scaled to a fraction; values near 1 show little effect. For some of these results: A top dose marked as inferred was calculated from the reported fits. For some of these results: Drugs with an entry number were screened twice under separate entries, and the two screens often disagree.
What was measured:
Assay in all cases: Viability of human cancer cell lines after 72 h of drug (GDSC screen)
CHIR-99021 = compound: Cc1cnc(-c2cnc(NCCNc3ccc(C#N)cn3)nc2-c2ccc(Cl)cc2Cl)[nH]1 [CHIR-99021]
Procedure: (§1)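 Human cancer cell lines in 384-well plates, medium with 10% serum, drug for 72 h over a 256-fold dose range (nine 2-fold or five 4-fold steps up to the top dose). Adherent lines were fixed and stained with the nucleic acid dye Syto60, suspension lines read with resazurin; signal relative to control wells, capped at 0 and 100%. One two-parameter sigmoid per drug and line, fitted in a mixed model over all curves with the slope shared within a line.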

(5Z)-7-Oxozeaenol = compound: COc1cc(O)c2c(c1)/C=C/C[C@H](O)[C@H](O)C(=O)/C=C\C[C@H](C)OC2=O [(5Z)-7-Oxozeaenol]; conditions: top dose 10 µM; top dose inferred
Procedure: as §1

KU-55933 = compound: O=c1cc(-c2cccc3c2Sc2ccccc2S3)oc(N2CCOCC2)c1 [KU-55933]; conditions: top dose 10 µM
Procedure: as §1

Zibotentan = compound: COc1nc(C)cnc1NS(=O)(=O)c1cccnc1-c1ccc(-c2nnco2)cc1 [Zibotentan]; conditions: top dose 20 µM; top dose inferred
Procedure: as §1

MPS-1-IN-1 = compound: COc1cc(N2CCC(O)CC2)ccc1Nc1cc(Nc2ccccc2S(=O)(=O)C(C)C)c2cc[nH]c2n1 [MPS-1-IN-1]; conditions: top dose 20 µM; top dose inferred
Procedure: as §1

CP466722 = compound: COc1cc2ncnc(-n3nc(-c4ccccn4)nc3N)c2cc1OC [CP466722]; conditions: top dose 16 µM; top dose inferred
Procedure: as §1

Thapsigargin = compound: C/C=C(/C)C(=O)O[C@H]1C(C)=C2[C@H]([C@@H]1OC(=O)CCCCCCC)[C@@](C)(OC(C)=O)C[C@H](OC(=O)CCC)[C@@]1(O)[C@H]2OC(=O)[C@@]1(C)O [Thapsigargin]; conditions: top dose 0.512 µM; top dose inferred
Procedure: as §1

ABT-869 = compound: Cc1ccc(F)c(NC(=O)Nc2ccc(-c3cccc4[nH]nc(N)c34)cc2)c1 [ABT-869]; conditions: top dose 1.024 µM; top dose inferred
Procedure: as §1

Cytarabine = compound: Nc1ccn([C@@H]2O[C@H](CO)[C@@H](O)[C@@H]2O)c(=O)n1 [Cytarabine]; conditions: top dose 2 µM
Procedure: as §1

ABT-888 = compound: C[C@]1(c2nc3c(C(N)=O)cccc3[nH]2)CCCN1 [ABT-888]; conditions: top dose 5 µM; top dose inferred
Procedure: as §1

QL-X-138 = compound: C=CC(=O)Nc1cc(-n2c(=O)ccc3cnc4ccc(-c5cn[nH]c5)cc4c32)ccc1C [QL-X-138]; conditions: top dose 10.24 µM; top dose inferred
Procedure: as §1

GSK269962A = compound: CCn1c(-c2nonc2N)nc2cnc(Oc3cccc(NC(=O)c4ccc(OCCN5CCOCC5)cc4)c3)cc21 [GSK269962A]; conditions: top dose inferred
Procedure: as §1

CMK = compound: Cc1ccc(-c2c(C(=O)CCl)n(CCCO)c3ncnc(N)c23)cc1 [CMK]; conditions: top dose 4 µM; top dose inferred
Procedure: as §1

[1] = top dose 2.56 µM, screen: GDSC drug entry 154
[2] = top dose 10 µM, screen: GDSC drug entry 1241, top dose inferred
[3] = top dose 5 µM, screen: GDSC drug entry 1192
[4] = top dose 2.5 µM, screen: GDSC drug entry 127

Cell Line | AUC (CHIR-99021; [1]) | IC50 (CHIR-99021; [1]) | AUC (CHIR-99021; [2]) | IC50 (CHIR-99021; [2]) | AUC ((5Z)-7-Oxozeaenol) | IC50 ((5Z)-7-Oxozeaenol) | AUC (KU-55933) | IC50 (KU-55933) | AUC (Zibotentan) | IC50 (Zibotentan) | AUC (MPS-1-IN-1) | IC50 (MPS-1-IN-1) | AUC (CP466722) | IC50 (CP466722) | AUC (Thapsigargin) | IC50 (Thapsigargin) | AUC (ABT-869) | IC50 (ABT-869) | AUC (Cytarabine) | IC50 (Cytarabine) | AUC (ABT-888) | IC50 (ABT-888) | AUC (QL-X-138) | IC50 (QL-X-138) | AUC (GSK269962A; [3]) | IC50 (GSK269962A; [3]) | AUC (CMK) | IC50 (CMK) | AUC (GSK269962A; [4]) | IC50 (GSK269962A; [4])
A704 (kidney, adherent) | 0.903 | > 2.56 µM | 0.843 | 6.75 µM | 0.721 | 2.59 µM | 0.922 | > 10 µM | 0.988 | > 20 µM | 0.986 | > 20 µM | 0.933 | > 16 µM | 0.49 | 0.0301 µM | 0.989 | > 1.02 µM | 0.879 | 1.94 µM | 0.986 | > 5 µM | 0.985 | > 10.2 µM | 0.908 | > 5 µM | 0.861 | 3.21 µM | – | –
ALL-PO (lymphoblastic leukaemia, suspension) | 0.892 | > 2.56 µM | 0.946 | > 10 µM | 0.76 | 3.71 µM | 0.689 | 2.18 µM | 0.979 | > 20 µM | 0.736 | 6.18 µM | 0.384 | 0.469 µM | 0.419 | 0.019 µM | 0.543 | 0.0845 µM | 0.657 | 0.35 µM | 0.892 | > 5 µM | 0.536 | 0.807 µM | 0.939 | > 5 µM | 0.847 | 3.2 µM | 0.938 | > 2.5 µM
AM-38 (glioma, semi-adherent) | 0.988 | > 2.56 µM | 0.987 | > 10 µM | 0.769 | 3.85 µM | 0.967 | > 10 µM | 0.978 | > 20 µM | 0.795 | 9.48 µM | 0.775 | 6.48 µM | 0.411 | 0.0182 µM | 0.988 | > 1.02 µM | 0.832 | 1.31 µM | 0.978 | > 5 µM | 0.541 | 0.832 µM | 0.97 | > 5 µM | 0.988 | > 4 µM | 0.944 | > 2.5 µM
AMO-1 (haematopoietic neoplasm, suspension) | 0.982 | > 2.56 µM | 0.866 | 6.9 µM | 0.695 | 2 µM | 0.989 | > 10 µM | 0.991 | > 20 µM | 0.811 | 8.82 µM | 0.779 | 5.58 µM | 0.233 | 0.0062 µM | 0.987 | > 1.02 µM | 0.933 | > 2 µM | 0.991 | > 5 µM | 0.766 | 3.27 µM | 0.877 | 3.8 µM | 0.971 | > 4 µM | 0.981 | > 2.5 µM
ARH-77 (myeloma, suspension) | 0.987 | > 2.56 µM | 0.978 | > 10 µM | 0.737 | 2.89 µM | 0.951 | > 10 µM | 0.981 | > 20 µM | 0.909 | > 20 µM | 0.657 | 2.68 µM | 0.64 | 0.077 µM | 0.98 | > 1.02 µM | 0.944 | > 2 µM | 0.976 | > 5 µM | 0.626 | 1.4 µM | 0.956 | > 5 µM | 0.887 | > 4 µM | 0.986 | > 2.5 µM

Source: the supplement of paper PMC4967469
